# According to patent US6465654B2, “Process for preparing 1-substituted, 2-substituted 1H-imidazo[4, 5-c]quinoline-4-amines” (3M Innovative Properties Company, priority 1991, dated 2002):
# Tested on: MC-26 colon tumor cells
# Assay: Inhibition of MC-26 tumors in mice, 21 day lung colony count
# Conditions: four control mice died
smiles,measurement,setting,value
"CCOCc1nc2c(N)nc3ccccc3c2n1CC(C)(C)O [Example 99, 4-Amino-α,α-dimethyl-2-ethoxymethyl-1H-imidazo[4,5-c]quinoline-1-ethanol]",Survival until day 21,"oral 1 mg/Kg on days 0-4, ten mice",One mouse from this group died prior to day 21
same,Survival until day 21,"oral 3 mg/Kg on days 0-4, ten mice",All of the mice in this treatment group survived until day 21
